# Measurements from the RNAGym collection of RNA variant scans (doi:10.1073/pnas.2313332121).
# Variants at the floor of the assay are shown more often than the library holds them.
# B1: TPR 5TU (parent)
# chain: GGAUCUUCUCGAUCUAACAAAAAAGACAAAUCUGCCACAAAGCUUGAGAGCAUCUUCGGAUGCAGAGGCGGCAGCCUUCGGUGGCGCGAUAGCGCCAACGUUCUCAACUAUGACACGCAAAACGCGUGCUCCGUUGAAUGGAGUUUAUCAUG
# Variants of: B1
# Experiment: polymerase ribozyme fitness, log enrichment relative to wild type (log ratio); higher = more active; in vitro selection for triplet polymerase activity
# Method in brief: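 Mutant libraries of each subunit of a heterodimeric triplet polymerase ribozyme were built by PCR and transcribed. Each library went through one round of in vitro selection in triplicate: annealing with biotinylated primer, partner subunit and triplets, frozen incubation at −7 °C, gel excision of extended constructs, streptavidin-bead capture and RT-PCR. Input and output libraries were Illumina-sequenced; only genotypes with ≥10 input reads and ≥1 read per output were kept. Fitness is log2(genotype enrichment/wild-type enrichment), using inverse-variance-weighted replicate averages.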
row,Variant,polymerase ribozyme fitness (log ratio)
1,C79U G88U U127G U144A,≤ -4.2
2,U78G C85G G140A,≤ -4.2
3,G80A G84A C116A U135G,≤ -4.2
4,C75G G143C U151G,≤ -4.2
5,G81A G86C A89U C125U C131U A137G,-4.06
6,C76U G86A,-0.246
7,C76A C87U G92C,-2.48
8,C76A C87U G140U,≤ -4.2
9,C79A C85U C96A G143C,≤ -4.2
10,C76G A91U A115U,≤ -4.2
11,U77G G84U G86A G94U A97G G128A C132G A137C C149G,≤ -4.2
12,U77A G83A A115G U144G,≤ -4.2
13,C76U G136A G140A,≤ -4.2
14,U77C U82G A91G A98G U148C,≤ -4.2
15,U77C C85A C99U,≤ -4.2
16,C76A A137G,-1.07
17,C76A C93G A137C G141U U145G,≤ -4.2
18,C79G G83A C123U A142G,≤ -4.2
19,C75U G83C C99U G117A A121U A138G,≤ -4.2
20,C76U A121U,0.67
21,C75U G88C U111G C129G U139G,≤ -4.2
22,C75U C85U A98G C103U U109A,≤ -4.2
23,C75U C87A C125G G141A,≤ -4.2
24,C76A C87G C103A G126A,≤ -4.2

row,Variant,polymerase ribozyme fitness (log ratio)
1,U77C G92U C105G G128U,≤ -4.2
2,C76U C85U A138C U144A,≤ -4.2
3,C75U G88A,≤ -4.2
4,C76A G136A,0.971
5,U77C A107G A122G A138U U146C U148G A150U,≤ -4.2
6,U77A U82C G94U A142G G143C,≤ -4.2
7,C79A G80U,≤ -4.2
8,C76A C87U,-2.16
9,G81C G84U,-2.44
10,C76G C85A C108U G143A,≤ -4.2
11,U78G G86A A91G C103G G143U,≤ -4.2
12,U77A G86U C103U,≤ -4.2
13,G81C U135C,-2.22
14,U77A G86C C96A,≤ -4.2
15,U77A C93U G94U A137U,≤ -4.2
16,C76G C96G C105U C131A,≤ -4.2
17,C79A C93U,≤ -4.2
18,C75G G84A A107U A121U U151C,≤ -4.2
19,C75A U135G,≤ -4.2
20,C75U G83U C125A G128A A142U,≤ -4.2
21,C76U C95U U135C C149A,≤ -4.2
22,C79A C87G G100U U130G,≤ -4.2
23,C76U C93U C105U,-0.938
24,C79A G83U C85A U127C G141C,≤ -4.2

row,Variant,polymerase ribozyme fitness (log ratio)
1,C79U C85G,≤ -4.2
2,C75G C96U,-3.61
3,C75G C96A,-3.52
4,U78C G84A G136U,-3.14
5,C76U C79G C87A,≤ -4.2
6,C79G G88C A150G,≤ -4.2
7,G81C G92A,-3.5
8,U77G G92A C103G C105A A107U G124U G143A,≤ -4.2
9,C79G C103G C131U U135A G136C A147U,≤ -4.2
10,G81A C87G A106C G141A,≤ -4.2
11,U82G C95U G100A A106G A137U A138G C149U G152U,≤ -4.2
12,G80A A98C,-2.19
13,C75G A89C C95U G141A,≤ -4.2
14,U77G U82A,≤ -4.2
15,U82C C95G U148C,-4.02
16,U82A G94C C96U G140A A150G,≤ -4.2
17,U77G A91U A107U C149A,≤ -4.2
18,U82G C93U C131G G140U U146A,≤ -4.2
19,G80A C87A A150C,≤ -4.2
20,C79U A89G C93A G126U,≤ -4.2
21,U77G C79G G83C,≤ -4.2
22,C76U C87A A91G A107U G126A U145A,≤ -4.2
23,C76A U82G,-1.94
24,C79G C118U A142C,≤ -4.2

row,Variant,polymerase ribozyme fitness (log ratio)
1,G80A C85G,-1.38
2,C75U C103G G126A,≤ -4.2
3,C75G G81C A89U,≤ -4.2
4,C76A A91U C125U G126C G143C,≤ -4.2
5,C76G U135C,≤ -4.2
6,U77A C93A C116A C149U,≤ -4.2
7,U82A C87G C95U G136C,≤ -4.2
8,G81A G88C A91U U111C A119C G124U U134G U135A,≤ -4.2
9,U77G G84C C96G C103A A137C,≤ -4.2
10,U77C C85G A89G A120C,≤ -4.2
11,U77G G84A G117U U135G,≤ -4.2
12,U77C C87U G126A,≤ -4.2
13,C76U G83U G84U C123U,-2.49
14,G81A C85G,-1.86
15,C75G C76A G92U,≤ -4.2
16,C75U G88C C118U A121U,≤ -4.2
17,C76G G84A G100C,≤ -4.2
18,U77A C96A,≤ -4.2
19,U77G C87A C95A A110U,≤ -4.2
20,G81A C87U A97C U101A U104G C116U,-4.01
21,C76U C116G,0.541
22,G80A C99U C108G G141U,≤ -4.2
23,C79U U134A,-4.05
24,G80A C99A U146C U148A G152U,≤ -4.2

row,Variant,polymerase ribozyme fitness (log ratio)
1,U77G G92U,-3.92
2,C76A U82G U146A,-0.356
3,C75U G92U C105G A115U,-4.17
4,U77G C93U U104G C108U G136C,≤ -4.2
5,C76A C87G C93U,≤ -4.2
6,C75A G86U A91U A122G G136A,≤ -4.2
7,U78C C149A,≤ -4.2
8,G81C A91G C108G,≤ -4.2
9,G81C G94A,-0.416
10,C75G G86C C99U U104C A142U,≤ -4.2
11,C76U C85A G136C,≤ -4.2
12,U82G C93U C149G,≤ -4.2
13,C76A G84A G126A C149G,≤ -4.2
14,C75G A91U,≤ -4.2
15,G81A A91U C105A,≤ -4.2
16,G80A C87A A110U A120U A121U,≤ -4.2
17,U82C A89U,-0.15
18,C76A G88U C96U A98G A107G A119C G124A,≤ -4.2
19,C79U A91U C95G A113C A120C G152A,≤ -4.2
20,G81U U82C C95U A120U,-0.64
21,U77A G83C A91C,≤ -4.2
22,C79U C85G C118A,≤ -4.2
23,U78G C99G G117A,≤ -4.2
24,G80C U90G A106C A115G C132A,≤ -4.2

row,Variant,polymerase ribozyme fitness (log ratio)
1,G81A A120C G133U,≤ -4.2
2,C76A G92U C93U A122U G141A U145C A150C,≤ -4.2
3,C79G G84A G94C G136C A138G A150G,≤ -4.2
4,C79A A115G G143A,≤ -4.2
5,U82C A89U C125U A137C,≤ -4.2
6,C76A G83A U134G,-3.45
7,U82G A91U A110U G117A,≤ -4.2
8,U77A G84U C105U,≤ -4.2
9,C75G A91U A106G G117C C131A U135C,≤ -4.2
10,U77A A98U C118U,≤ -4.2
11,C75G G124U G133U U145A,≤ -4.2
12,C75G G86C,≤ -4.2
13,G81A A97G C125U,-0.572
14,U77G C87U U144G,≤ -4.2
15,U77G G84A,≤ -4.2
16,C79U C93A C99A G126A G141U,≤ -4.2
17,C79U A119U G124A G152U,≤ -4.2
18,C79U G88U A97U G124A,≤ -4.2
19,C79A G84A A147G,≤ -4.2
20,C75G A107C,≤ -4.2
21,U82G C95A C99U A150C,≤ -4.2
22,C75U C85U A119G G143A A147C,-3.76
23,C76A G143U,-3.02
24,G81A G86A C99G,-1.98

row,Variant,polymerase ribozyme fitness (log ratio)
1,C76A C85G A98U C99G C114G,≤ -4.2
2,C79A C99U,≤ -4.2
3,C75G C87A,-3.89
4,U77G U102A,≤ -4.2
5,C75U C96U U102G A107G,≤ -4.2
6,U78A A91U A138C,≤ -4.2
7,G81U C85G A89C C93G,≤ -4.2
8,C76U A119C C123U,0.258
9,C79U C85A U146C G152U,≤ -4.2
10,C79A G94A A113G C149U,≤ -4.2
11,C76U A91U U145A,≤ -4.2
12,C76G U101A A110U C118U G124A,≤ -4.2
13,G80A G92C,-0.857
14,G80A G92U,-3.2
15,G80A G92A G94C C105G C108U G143U,≤ -4.2
16,U82A C95U C96U A98C C116U G133U,≤ -4.2
17,C76G G143A,≤ -4.2
18,C76U U78C A106C,-1.92
19,U78A U130A A142C,≤ -4.2
20,U77G G92U U134G,≤ -4.2
21,C76U G88U C118G G124C C149A,≤ -4.2
22,U77G A107G,≤ -4.2
23,C75G C85U C95G C149G,≤ -4.2
